We go through eleven molecules from patent publication US9499612B2, “Antigen binding constructs” (Glaxo Group Limited, priority 2011, dated 2016).

T1: rhVEGF165 (Homo sapiens, UniProt P15692)
T1 construct: made in house; host or cells: HEK293 cells, transient transfection
T1 sequence (P15692 27-191 isoform P15692-4): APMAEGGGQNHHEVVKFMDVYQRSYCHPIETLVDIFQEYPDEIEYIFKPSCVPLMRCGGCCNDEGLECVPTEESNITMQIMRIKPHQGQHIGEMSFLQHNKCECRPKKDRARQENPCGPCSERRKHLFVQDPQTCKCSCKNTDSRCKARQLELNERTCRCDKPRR

B1: DMS30006: Vk dAb-Fc molecule (protein)
chain: ESTDIQMTQSPSSLSASVGDRVTITCRASQWIGPELKWYQQKPGKAPKLLIYHGSILQSGVPSRFSGSGSGTDFTLTISSLQPEDFATYYCQQYMYYPKTFGQGTKVEIKRAA[human IgG1 Fc and a few adjoining residues not shown]
modifications: N-terminal Fc fusion of K-044-255 DAB (AAAS Linker) dAb-Fc amino acid sequence identified using molecular biology techniques.
notes: Vk dAb-Fc molecule
B2: DMS30013: anti-VEGF Vk dAb / Fc fusion (SEQ ID NO:16 & 44) (protein)
chain: [human IgG1 Fc and a few adjoining residues not shown]EVDETYVPKEFNAETFTFHADDIQMTQSPSSLSASVGDRVTITCRASQWIGPELKWYQQKPGKAPKLLIYHGSILQSGVPSRFSGSGSGTDFTLTISSLQPEDFATYYCQQYMYYPHTFGQGTKVEIKR
modifications: C-terminal Fc fusion of K-044-085 DAB (Albumin Domain 3 Linker) Fc-dAb nucleic acid sequence identified using molecular biology techniques.
B3: DMS30014: anti-VEGF Vk dAb / Fc fusion compared in Table 11A (protein)
chain: [human IgG1 Fc not shown]EVDETYVPKEFNAETFTFHADDIQMTQSPSSLSASVGDRVTITCRASQWIGPELKWYQQKPGKAPKLLIYHGSILQSGVPSRFSGSGSGTDFTLTISSLQPEDFATYYCQQYMYYPHTFGQGTKVEIKR
modifications: C-terminal Fc fusion of K-044-085 DAB(Albumin Domain 3 Linker) Fc-dAb amino acid sequence identified using molecular biology techniques.
B4: C085 Alb DOM2: Vk Fc-dAb, DT02-K-085 linked to IgG1Fc by C-terminal linker Albumin domain 2 (protein)
chain: [human IgG1 Fc not shown]ENDEMPADLPSLAADFVESKDDIQMTQSPSSLSASVGDRVTITCRASQWIGPELKWYQQKPGKAPKLLIYHGSILQSGVPSRFSGSGSGTDFTLTISSLQPEDFATYYCQQYMYYPHTFGQGTKVEIKR
B5: N085TVAAPS: Vk dAb-Fc, DT02-K-085 linked to IgG1Fc by N-terminal 1xTVAAPS linker (protein)
chain: DIQMTQSPSSLSASVGDRVTITCRASQWIGPELKWYQQKPGKAPKLLIYHGSILQSGVPSRFSGSGSGTDFTLTISSLQPEDFATYYCQQYMYYPHTFGQGTKVEIKRTVAA[human IgG1 Fc and a few adjoining residues not shown]
modifications: N-terminal Fc fusion of K-044-085 DAB (TVAAPS) amino acid sequence identified using molecular biology techniques.
notes: Vk dAb-Fc, DT02-K-085 linked to IgG1Fc by N-terminal 1xTVAAPS linker
B6: DMS30026: Vk Fc-dAb, DT02-K-085 dAb attached to IgG1Fc by C-terminal fib4 linker (protein)
chain: [human IgG1 Fc not shown]TGLDSPTGLDSPTGLDSPTGLDSPDIQMTQSPSSLSASVGDRVTITCRASQWIGPELKWYQQKPGKAPKLLIYHGSILQSGVPSRFSGSGSGTDFTLTISSLQPEDFATYYCQQYMYYPHTFGQGTKVEIKR
modifications: C-terminal Fc fusion of K-044-085 DAB ((TGLDSP)x4) amino acid sequence identified using molecular biology techniques.
notes: Vk Fc-dAb, DT02-K-085 dAb attached to IgG1Fc by C-terminal fib4 linker
B7: C085 G4Sx4: Vk Fc-dAb, DT02-K-044-085 with C-terminal Gly4Ser 4x Linker (protein)
chain: [human IgG1 Fc not shown]GGGGSGGGGSGGGGSGGGGSDIQMTQSPSSLSASVGDRVTITCRASQWIGPELKWYQQKPGKAPKLLIYHGSILQSGVPSRFSGSGSGTDFTLTISSLQPEDFATYYCQQYMYYPHTFGQGTKVEIKR
modifications: C-terminal Fc fusion of K-044-085 DAB ((Gly4Ser)x4) amino acid sequence identified using molecular biology techniques.
notes: Vk Fc-dAb, DT02-K-044-085 with C-terminal Gly4Ser 4x Linker
B8: C085 Alb DOM1: Vk Fc-dAb, DT02-K-044-085 with C-terminal Albumin Domain 1 linker (protein)
chain: [human IgG1 Fc not shown]HKDDNPNLPRLVRPEVDVMDIQMTQSPSSLSASVGDRVTITCRASQWIGPELKWYQQKPGKAPKLLIYHGSILQSGVPSRFSGSGSGTDFTLTISSLQPEDFATYYCQQYMYYPHTFGQGTKVEIKR
B9: N085 Fibrx4: Vk dAb-Fc, DT02-K-085 linked to IgG1Fc by N-terminal linker Fibronectin 4 (protein)
chain: DIQMTQSPSSLSASVGDRVTITCRASQWIGPELKWYQQKPGKAPKLLIYHGSILQSGVPSRFSGSGSGTDFTLTISSLQPEDFATYYCQQYMYYPHTFGQGTKVEIKRTGLDSPTGLDSPTGLDSPTGLD[human IgG1 Fc and a few adjoining residues not shown]
B10: C085 G4Sx3: Vk Fc-dAb, DT02-K-044-085 with C-terminal Gly4Ser 3x Linker (protein)
chain: [human IgG1 Fc not shown]GGGGSGGGGSGGGGSDIQMTQSPSSLSASVGDRVTITCRASQWIGPELKWYQQKPGKAPKLLIYHGSILQSGVPSRFSGSGSGTDFTLTISSLQPEDFATYYCQQYMYYPHTFGQGTKVEIKR
modifications: C-terminal Fc fusion of K-044-085 DAB ((Gly4Ser)x3) amino acid sequence identified using molecular biology techniques.
notes: Vk Fc-dAb, DT02-K-044-085 with C-terminal Gly4Ser 3x Linker
B11: C085 Alb DOM3: Vk Fc-dAb, DT02-K-044-085 with C-terminal Albumin Domain 3 linker (protein)
chain: [human IgG1 Fc not shown]EVDETYVPKEFNAETFDIQMTQSPSSLSASVGDRVTITCRASQWIGPELKWYQQKPGKAPKLLIYHGSILQSGVPSRFSGSGSGTDFTLTISSLQPEDFATYYCQQYMYYPHTFGQGTKVEIKR

The first experiment concerns the target T1, rhVEGF165. Nature of the experiment: BIACORE T100 SPR binding to VEGF165 at 37° C. The conditions noted are these: Table 5; 37 °C. The protocol: (§1) The run was carried out at 37° C., using HBS-EP as the running buffer.
as §1, §1, §1, §1
For orientation: In SPR one partner is held on a chip, and binding of the other changes the refractive index at the surface.
Turning to B1, the “fit of binding data (cell spanning ka, kd, KD)” value is on record as “Poor fit to 1:1 model”.

Staying with this experiment, now noted: Table 11A; 37 °C.
For B2, the Kd entry is “Too tight”.

As for B3, the Kd entry is listed as “At the limite of”.

With B4, the Kd result was “Too tight”.

On to B5, for which the Kd entry is given as “Too tight”.

As for B6, the Kd entry is given as “At the limit of”.

Still in this experiment, the particulars now being: Table 11A; 37 °C; VEGF 16 nM-[…].
B7: the Ka turned out to be 6.11E+06 M − 1 · s − 1.

Still in this experiment, the particulars now being: Table 11A; fit to 1:1 model.
Turning to B8, the fit result was “Ok and ok”.

B9: the fit result is on record as “Not ideal/doesn't look like”.

As to B10, the fit entry is reported as “ok”.

For the molecule B11, the fit result was “ok”.

Consider B2, for which the fit result is recorded as “ok”.

Take B3: the fit entry is “Ok”.

Regarding B4, the fit entry is listed as “ok”.

B5: the fit entry was “Not ideal/doesn't look like”.

On to B6, for which the fit result is “ok”.

In the case of B7, the fit result is given as “ok”.

The experiment is the same for the next values; noted with them: Table 11B.
Consider B6, for which the comment result is “Good fit to the 1:1 binding model”.

Still in this experiment, the particulars now being: Table 11C.
As to B5, the comment result is listed as “Biphasic curves. Doesn't look”.
